Only a part is listed here, and it is no random draw. At the low end of the ranking the order means little. The list shows a part of the results.

The record followed here is publication PMC12529666.

Test [1] addresses AGO2 WT (phosphosite mutant background) S387D + S824A + S828D + S831D + S834A (UniProt Q9UKV8). Description: RNA Bind-n-Seq (nitrocellulose filter binding and sequencing). The following applies: constant regions annealed to DNA blockers; guide miR-122 5' phosphate; 30 mM Tris pH 8.0, 100 mM potassium acetate, 2 mM magnesium acetate, 0.5 mM TCEP, 0.005% NP-40, 0.01 mg/ml yeast tRNA; 3 nM AGO2-miR-122, 100 nM RNA library …; high values mean tight binding.

Test [2] has as its target AGO2 F182del S387D + S824A + S828D + S831D + S834A + del182-182 (UniProt Q9UKV8). Described as above. The following applies: constant regions annealed to DNA blockers; guide miR-122 5' phosphate; 30 mM Tris pH 8.0, 100 mM potassium acetate, 2 mM magnesium acetate, 0.5 mM TCEP, 0.005% NP-40, 0.01 mg/ml yeast tRNA; 3 nM AGO2-miR-122, 100 nM RNA library …; high values mean tight binding.

With “GAGUUCUACAGUCCGACGAUCCCAACACACUCCGCACCUGGAAUUCUCGGGUGCCAA / UGGAGUGUGACAAUGGUGUUUG / GATCGTCGGACTGTAGAACTC / TTGGCACCCGAGAATTCCA”, the binding signal (fold enrichment over input) stood at 154 in test [1] and 91 in test [2].

On to “GAGUUCUACAGUCCGACGAUCCCAACAUAUCUUACACCUGGAAUUCUCGGGUGCCAA / UGGAGUGUGACAAUGGUGUUUG / GATCGTCGGACTGTAGAACTC / TTGGCACCCGAGAATTCCA”, for which the binding signal (fold enrichment over input) in test [1] is 0.113; in test [2], 0.0887.

Regarding “GAGUUCUACAGUCCGACGAUCCCAACGCGUUUUACACCUGGAAUUCUCGGGUGCCAA / UGGAGUGUGACAAUGGUGUUUG / GATCGTCGGACTGTAGAACTC / TTGGCACCCGAGAATTCCA”, the binding signal (fold enrichment over input) amounted to 0.107 in test [1] and 0.0706 in test [2].

In the case of “GAGUUCUACAGUCCGACGAUCCCAACGCACUCUACACCUGGAAUUCUCGGGUGCCAA / UGGAGUGUGACAAUGGUGUUUG / GATCGTCGGACTGTAGAACTC / TTGGCACCCGAGAATTCCA”, the binding signal (fold enrichment over input) in test [2] was determined as 0.786.

As for “GAGUUCUACAGUCCGACGAUCCCAACAUACUUCACACCUGGAAUUCUCGGGUGCCAA / UGGAGUGUGACAAUGGUGUUUG / GATCGTCGGACTGTAGAACTC / TTGGCACCCGAGAATTCCA”, the binding signal (fold enrichment over input) in test [2] worked out at 1.33.

For the sequence “GAGUUCUACAGUCCGACGAUCCCAACGCGCCUUACACCUGGAAUUCUCGGGUGCCAA / UGGAGUGUGACAAUGGUGUUUG / GATCGTCGGACTGTAGAACTC / TTGGCACCCGAGAATTCCA”, the binding signal (fold enrichment over input) in test [1] turned out to be 0.125; in test [2] it was 0.0863.

For the sequence “GAGUUCUACAGUCCGACGAUCCCAACGUAUUUCACACCUGGAAUUCUCGGGUGCCAA / UGGAGUGUGACAAUGGUGUUUG / GATCGTCGGACTGTAGAACTC / TTGGCACCCGAGAATTCCA”, the binding signal (fold enrichment over input) came out at 0.136 in test [1] and 0.805 in test [2].

“GAGUUCUACAGUCCGACGAUCCCAACGUGUCCCACACCUGGAAUUCUCGGGUGCCAA / UGGAGUGUGACAAUGGUGUUUG / GATCGTCGGACTGTAGAACTC / TTGGCACCCGAGAATTCCA”: the values for the binding signal (fold enrichment over input) in test [1] and in test [2] were 0.125 and 0.268, respectively.

As for “GAGUUCUACAGUCCGACGAUCCCAACAUACUCCACACCUGGAAUUCUCGGGUGCCAA / UGGAGUGUGACAAUGGUGUUUG / GATCGTCGGACTGTAGAACTC / TTGGCACCCGAGAATTCCA”, the binding signal (fold enrichment over input) in test [2] amounted to 8.59.

In the case of “GAGUUCUACAGUCCGACGAUCCCAACGUAUUCUGCACCUGGAAUUCUCGGGUGCCAA / UGGAGUGUGACAAUGGUGUUUG / GATCGTCGGACTGTAGAACTC / TTGGCACCCGAGAATTCCA”, the binding signal (fold enrichment over input) in test [1] was found to be 0.0928; in test [2], 0.0494.

“GAGUUCUACAGUCCGACGAUCCCAACACAUUUUACACCUGGAAUUCUCGGGUGCCAA / UGGAGUGUGACAAUGGUGUUUG / GATCGTCGGACTGTAGAACTC / TTGGCACCCGAGAATTCCA”: the binding signal (fold enrichment over input) in test [2] was 0.359.

Consider “GAGUUCUACAGUCCGACGAUCCCAACACAUCUUGCACCUGGAAUUCUCGGGUGCCAA / UGGAGUGUGACAAUGGUGUUUG / GATCGTCGGACTGTAGAACTC / TTGGCACCCGAGAATTCCA”, for which the figures for the binding signal (fold enrichment over input) in test [1] and in test [2] were 0.0934 and 0.0749, respectively.

As to “GAGUUCUACAGUCCGACGAUCCCAACAUAUUCUGCACCUGGAAUUCUCGGGUGCCAA / UGGAGUGUGACAAUGGUGUUUG / GATCGTCGGACTGTAGAACTC / TTGGCACCCGAGAATTCCA”, the values for the binding signal (fold enrichment over input) in test [1] and in test [2] were 0.0935 and 0.0465, respectively.

As to “GAGUUCUACAGUCCGACGAUCCCAACGUAUUCCGCACCUGGAAUUCUCGGGUGCCAA / UGGAGUGUGACAAUGGUGUUUG / GATCGTCGGACTGTAGAACTC / TTGGCACCCGAGAATTCCA”, the binding signal (fold enrichment over input) in test [1] was 0.11; in test [2], 0.0846.

“GAGUUCUACAGUCCGACGAUCCCAACACACUUUGCACCUGGAAUUCUCGGGUGCCAA / UGGAGUGUGACAAUGGUGUUUG / GATCGTCGGACTGTAGAACTC / TTGGCACCCGAGAATTCCA”: the binding signal (fold enrichment over input) in test [1] is 0.0944; in test [2], 0.0793.

On to “GAGUUCUACAGUCCGACGAUCCCAACAUAUUUUACACCUGGAAUUCUCGGGUGCCAA / UGGAGUGUGACAAUGGUGUUUG / GATCGTCGGACTGTAGAACTC / TTGGCACCCGAGAATTCCA”, for which the values for the binding signal (fold enrichment over input) in test [1] and in test [2] were 0.127 and 0.0795, respectively.
